Test: Phase 1/2 study in human subjects: adverse events, DLT and MTD (NCI CTCAE v4.03)
Assay type: in vivo
[1] = All dosages (0.25-10 mg/kg), n=71, Table 10
[2] = of 18 patients with a treatment delay

B1: Combination 55 (conjugate)
heavy: QITLKESGPTLVKPTQTLTLTCTFSGFSLSTYGMGVGWIRQPPGKALEWLANIWWSEDKHYSPSLKSRLTITKDTSKNQVVLTITNVDPVDTATYYCVQIDYGNDYAFTYWGQGTLVTVSS[skipping human IgG1 constant region]
light: QGQSGQGLCHPAVLSAWESCSSGGGSSGGSAVGLLAPPGGLSGRSDNHGGSDIVMTQSPLSLPVTPGEPASISCRSSKSLLHSNGITYLYWYLQKPGQSPQLLIYQMSNLASGVPDRFSGSGSGTDFTLKISRVEAEDVGVYYCAQNLELPYTFGQGTKLEIKRTVAAPSVFIFPPSDEQLKSGTASVVCLLNNFYPREAKVQWKVDNALQSGNSQESVTEQDSKDSTYSLSSTLTLSKADYEKHKVYACEVTHQGLSSPVTKSFNRGEC
modifications: DM4 via SPDB linker
6-7 mg/kg, n=18, Table 11A
  Grade 3-4 TRAEs, Nervous System Disorders (% of subjects observed): (11.1%)
  Grade 3-4 TRAEs, Nervous System Disorders (no. of subjects): 2
  Total Grade 3-4 TRAEs (% of subjects observed): (22.2%)
  Total Grade 3-4 TRAEs (no. of subjects): 4
6-7 mg/kg, n=18, Table 11B
  Grade 3-4 TRAE Anemia (% of subjects observed): (6%)
  Grade 3-4 TRAE Anemia (no. of subjects): 1
  Grade 3-4 TRAE Fatigue (no. of subjects): 0
  Grade 3-4 TRAE HN, hyponatremia (% of subjects observed): (11%)
  Grade 3-4 TRAE HN, hyponatremia (no. of subjects): 2
  Grade 3-4 TRAE Increased ALT (no. of subjects): 0
  Grade 3-4 TRAE Increased AST (no. of subjects): 0
  Grade 3-4 TRAE Keratitis (no. of subjects): 0
  Grade 3-4 TRAE Nausea (% of subjects observed): (6%)
  Grade 3-4 TRAE Nausea (no. of subjects): 1
  Grade 3-4 TRAE PSN, Peripheral sensory neuropathy (% of subjects observed): (6%)
  Grade 3-4 TRAE PSN, Peripheral sensory neuropathy (no. of subjects): 1
  Grade 3-4 TRAE Vomiting (% of subjects observed): (6%)
  Grade 3-4 TRAE Vomiting (no. of subjects): 1
8-9 mg/kg, n=23, Table 11A
  Grade 3-4 TRAEs, Eye Disorders (% of subjects observed): (23.8%)
  Grade 3-4 TRAEs, Eye Disorders (no. of subjects): 5
  Grade 3-4 TRAEs, Gastrointestinal Disorders (% of subjects observed): (9.5%)
  Grade 3-4 TRAEs, Gastrointestinal Disorders (no. of subjects): 2
  Grade 3-4 TRAEs, Liver Function Tests (% of subjects observed): (4.8%)
  Grade 3-4 TRAEs, Liver Function Tests (no. of subjects): 1
  Grade 3-4 TRAEs, Metabolism & Nutrition Disorders (% of subjects observed): (9.5%)
  Grade 3-4 TRAEs, Metabolism & Nutrition Disorders (no. of subjects): 2
  Grade 3-4 TRAEs, Nervous System Disorders (no. of subjects): 0
  Total Grade 3-4 TRAEs (% of subjects observed): (52.4%)
  Total Grade 3-4 TRAEs (no. of subjects): 11
8-9 mg/kg, n=23, Table 11B
  Grade 3-4 TRAE Anemia (no. of subjects): 0
  Grade 3-4 TRAE Fatigue (no. of subjects): 0
  Grade 3-4 TRAE HN, hyponatremia (% of subjects observed): (4%)
  Grade 3-4 TRAE HN, hyponatremia (no. of subjects): 1
  Grade 3-4 TRAE Increased ALT (% of subjects observed): (4%)
  Grade 3-4 TRAE Increased ALT (no. of subjects): 1
  Grade 3-4 TRAE Increased AST (% of subjects observed): (4%)
  Grade 3-4 TRAE Increased AST (no. of subjects): 1
  Grade 3-4 TRAE Keratitis (% of subjects observed): (17%)
  Grade 3-4 TRAE Keratitis (no. of subjects): 4
  Grade 3-4 TRAE Nausea (% of subjects observed): (9%)
  Grade 3-4 TRAE Nausea (no. of subjects): 2
  Grade 3-4 TRAE PSN, Peripheral sensory neuropathy (no. of subjects): 0
  Grade 3-4 TRAE Vomiting (% of subjects observed): (4%)
  Grade 3-4 TRAE Vomiting (no. of subjects): 1
<4 mg/kg, n=10, Table 11A
  Grade 3-4 TRAEs, Eye Disorders (no. of subjects): 0
  Grade 3-4 TRAEs, Gastrointestinal Disorders (no. of subjects): 0
  Grade 3-4 TRAEs, Liver Function Tests (no. of subjects): 0
  Grade 3-4 TRAEs, Metabolism & Nutrition Disorders (no. of subjects): 0
  Grade 3-4 TRAEs, Nervous System Disorders (no. of subjects): 0
  Total Grade 3-4 TRAEs (no. of subjects): 0
<4 mg/kg, n=10, Table 11B
  Grade 3-4 TRAE Anemia (no. of subjects): 0
  Grade 3-4 TRAE Fatigue (no. of subjects): 0
  Grade 3-4 TRAE HN, hyponatremia (no. of subjects): 0
  Grade 3-4 TRAE Increased ALT (no. of subjects): 0
  Grade 3-4 TRAE Increased AST (no. of subjects): 0
  Grade 3-4 TRAE Keratitis (no. of subjects): 0
  Grade 3-4 TRAE Nausea (no. of subjects): 0
  Grade 3-4 TRAE PSN, Peripheral sensory neuropathy (no. of subjects): 0
  Grade 3-4 TRAE Vomiting (no. of subjects): 0
All Cohorts, n=78, Table 11B
  Grade 3-4 TRAE Anemia (% of subjects observed): (3%)
  Grade 3-4 TRAE Anemia (no. of subjects): 2
  Grade 3-4 TRAE Fatigue (% of subjects observed): (3%)
  Grade 3-4 TRAE Fatigue (no. of subjects): 2
  Grade 3-4 TRAE HN, hyponatremia (% of subjects observed): (4%)
  Grade 3-4 TRAE HN, hyponatremia (no. of subjects): 3
  Grade 3-4 TRAE Increased ALT (% of subjects observed): (4%)
  Grade 3-4 TRAE Increased ALT (no. of subjects): 3
  Grade 3-4 TRAE Increased AST (% of subjects observed): (5%)
  Grade 3-4 TRAE Increased AST (no. of subjects): 4
  Grade 3-4 TRAE Keratitis (% of subjects observed): (8%)
  Grade 3-4 TRAE Keratitis (no. of subjects): 6
  Grade 3-4 TRAE Nausea (% of subjects observed): (5%)
  Grade 3-4 TRAE Nausea (no. of subjects): 4
  Grade 3-4 TRAE PSN, Peripheral sensory neuropathy (% of subjects observed): (3%)
  Grade 3-4 TRAE PSN, Peripheral sensory neuropathy (no. of subjects): 2
  Grade 3-4 TRAE Vomiting (% of subjects observed): (3%)
  Grade 3-4 TRAE Vomiting (no. of subjects): 2
[1]
  Subjects with Infusion Reactions Grade 1-2: 13
  Subjects with Infusion Reactions Grade 3-4: 1 (1%)
  Subjects with Ocular Toxicities Grade 1-2: 20
  Subjects with Ocular Toxicities Grade 3-4: 6
  Subjects with Treatment-Related Adverse Events Grade 1-2: 42
  Subjects with Treatment-Related Adverse Events Grade 3-4: 17
All dosages, n=71, Table 10
  Subjects with Infusion Reactions Grade 1-2 (% of subjects): 18%
  Subjects with Infusion Reactions Grade 3-4 (% of subjects): 1 (1%)
  Subjects with Ocular Toxicities Grade 1-2 (% of subjects): 28%
  Subjects with Ocular Toxicities Grade 3-4 (% of subjects): 8%
  Subjects with Treatment-Related Adverse Events Grade 1-2 (% of subjects): 59%
  Subjects with Treatment-Related Adverse Events Grade 3-4 (% of subjects): 24%
All cohorts
  Patients with at least 1 treatment delay: 18 patients
  Patients with serious AEs (Grades 3-4): 27 patients
  Patients with serious AEs (Grades 3-4), percent: 35%
  TRAE of any grade: blurred vision: 17%
  TRAE of any grade: decreased appetite: 23%
  TRAE of any grade: diarrhea: 19%
  TRAE of any grade: fatigue: 24%
  TRAE of any grade: increased aspartate aminotransferase: 13%
  TRAE of any grade: infusion-related reaction: 18%
  TRAE of any grade: keratitis: 19%
  TRAE of any grade: nausea: 32%
  TRAE of any grade: vomiting: 15%
All cohorts, any grade
  Patients with treatment-related AEs (TRAEs): 69 patients
  Patients with treatment-related AEs (TRAEs), percent: 89%
Human subjects, every 3 weeks, dose based on adjusted ideal body weight, not reached
  Maximum tolerated dose (MTD): > 10 mg/kg
Human subjects, up to 10 mg/kg
  Safety profile: favorable safety profile
Improvement or resolution following dose delay, discontinuation, and/or dose reduction
  Manageability of events: medically manageable
[2]
  Treatment delays because of ocular toxicity, percent: 67%
  Treatment delays because of peripheral neuropathy, percent: 22%
Of 78 patients
  Discontinuation because of TRAE blurred vision: 1 patient
  Discontinuation because of TRAE keratitis: 6 patients
  Discontinuation because of TRAE nausea: 1 patient
  Discontinuation because of TRAE peripheral neuropathy: 1 patient
  Grade 4 TRAE gamma-glutamyl transferase increased (patients): 1
  Grade 4 TRAE keratitis (patients): 1
  Patients with Grade 4 TRAEs: 2 patients
  Patients with Grade 4 TRAEs, percent: 2.6%
Of 78 patients, given cut-off
  Patients with treatment-related adverse events that led to treatment discontinuation: 9 patients
  Patients with treatment-related adverse events that led to treatment discontinuation, percent: 12%
Of the 7 patients in Table 8B with unconfirmed partial response
  Patients with Grade ≥2 ocular toxicity resulting in dose delay or discontinuation: 5 patients

From patent US20220023439A1, “ACTIVATABLE ANTI-CD166 ANTIBODIES AND METHODS OF USE THEREOF” (priority 2018, published 2022)
